The source of these data is ChEMBL document CHEMBL1201862, “PubChem BioAssay data set” (2004).

The structures appear in SMILES notation. Values joined by “and” are separate entries in the source; they are usually repeats but may differ in a detail not shown here. Equal values may be shown once.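 Grown in 96-well plates, cells were treated for 48 hours with each compound at five concentrations. Insufficient inhibition: endpoint recorded as highest concentration tested. GI50 is the concentration that inhibits growth by half.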 Active and inactive are the calls of the source. Rule as the data show it: active = GI50 up to about 1.1 µM and inactive = higher. Numbered stars: 1 amine (or outer) side, 2 acyl side, 3 side chain; on linkers, the order of the positions; unused ones are H or OH. Bridge positions count the residues as written; N and C are the ends. Square brackets hold non-standard residues; d marks the D form. Peptide text beside a SMILES is read from it. I, II: the chains in the order shown. ξ: configuration not given here. X36 = N=C(N)NCCC[C@H](NC(=N)CCCCCCC(=N)N[C@@H](CCCNC(=N)N)C(=O)[*:2])C(=O)[*:1]; Actinocin(1to9) = Cc1c2oc3c(C)ccc(C(=O)[*:2])c3nc-2c(C(=O)[*:1])c(N)c1=O; Actinocin(9to1) = Cc1c2oc3c(C)ccc(C(=O)[*:1])c3nc-2c(C(=O)[*:2])c(N)c1=O; Oic(3aξ,7aξ) = O=C(O)[C@@H]1CC2CCCCC2N1; Igl = N[C@H](C(=O)O)C1Cc2ccccc2C1; Hyp = O=C(O)[C@@H]1C[C@@H](O)CN1; NMeF = CN[CH](Cc1ccccc1)C(=O)O; NMeV = CN[CH](C(=O)O)C(C)C; Sar = CNCC(=O)O Some results are limits rather than exact numbers.

This experiment relates to NCI-H322M. The experiment can be described thus: inhibition of tumour cell growth, NCI panel, 48 h.
Turning to `CC(C)(NC(=O)C(C)(C)NC(=O)OCc1ccccc1)C(=O)O` (HELM PEPTIDE1{[O=C(OCc1ccccc1)[*:2]].[Aib].[Aib]}$$$$V2.0), the GI50 is inactive: > 100 µM.
To `NC(=O)CNC(=O)C1CC(O)CN1C(=O)OCc1ccccc1` (stereo not drawn) (HELM PEPTIDE1{[O=C(OCc1ccccc1)[*:2]].[O=C(C1CC(O)CN1[*:1])[*:2]].G.[am]}$$$$V2.0) belongs inactive: > 100 µM; to `CC(C)C[C@H](NC(=O)[C@H](CC(C)C)NC(=O)[C@@H](Cc1c[nH]c2ccccc12)NC(=O)[C@H](Cc1ccccc1)NC(=O)[C@@H](Cc1c[nH]c2ccccc12)NC(=O)[C@H](CCC(N)=O)NC(=O)[C@@H](CCC(N)=O)NC(=O)[C@@H]1CCCN1C(=O)[C@@H](CCCCN)NC(=O)[C@H]1CCCN1C(=O)[C@H](N)CCCN=C(N)N)C(N)=O` (HELM PEPTIDE1{[dR].[dP].[dK].P.[dQ].Q.[dW].F.[dW].L.L.[am]}$$$$V2.0), inactive: > 100 µM.
To `N=C(N)NCCC[C@H](NC(=O)[C@@H]1CC2CCCCC2N1C(=O)[C@@H](NC(=O)[C@H](CO)NC(=O)[C@@H](NC(=O)CNC(=O)[C@@H]1CCCN1C(=O)[C@H](CCCNC(=N)N)NC(=O)[C@H](CCCNC(=N)N)NC(=N)CCCCCCC(=N)N[C@@H](CCCNC(=N)N)C(=O)N[C@@H](CCCNC(=N)N)C(=O)N1CCC[C@H]1C(=O)N1C[C@H](O)C[C@H]1C(=O)NCC(=O)N[C@H](C(=O)N[C@@H](CO)C(=O)N[C@H](C(=O)N1C2CCCCC2C[C@H]1C(=O)N[C@@H](CCCNC(=N)N)C(=O)O)C1Cc2ccccc2C1)C1Cc2ccccc2C1)C1Cc2ccccc2C1)C1Cc2ccccc2C1)C(=O)O` (stereo partly drawn) (I: RP[Hyp]G[Igl]S[Igl][Oic(3aξ,7aξ)]R-OH / II: RPG[Igl]S[Igl][Oic(3aξ,7aξ)]R-OH; linker I:N-II:N via X36) belongs inactive: 2.43 µM; to `Cc1c2oc3c(C)ccc(C(=O)NC4C(=O)NC(Cc5ccccc5)C(=O)N5CCCC5C(=O)N(C)CC(=O)N(C)C(C(C)C)C(=O)OC4C)c3nc-2c(C(=O)NC2C(=O)NC(Cc3ccccc3)C(=O)N3CCCC3C(=O)N(C)CC(=O)N(C)C(C(C)C)C(=O)OC2C)c(N)c1=O` (stereo not drawn) (I: TFP[Sar][NMeV] / II: TFP[Sar][NMeV]; ester I:1-I:C, II:1-II:C; linker I:N-II:N via Actinocin(9to1); configuration not given here), active: < 0.001 µM; to `CCC(C)C1NC(=O)C(NC(=O)c2c3nc4c(C(=O)NC5C(=O)NC(C(C)C)C(=O)N6CCCC6C(=O)N(C)CC(=O)N(C)C(C(C)C)C(=O)OC5C)ccc(C)c4oc-3c(C)c(=O)c2N)C(C)OC(=O)C(C(C)C)N(C)C(=O)CN(C)C(=O)C2CCCN2C1=O` (stereo not drawn) (I: TIP[Sar][NMeV] / II: TVP[Sar][NMeV]; ester I:1-I:C, II:1-II:C; linker I:N-II:N via Actinocin(1to9); configuration not given here), active: 0.000107 µM.
To `Cc1c2oc3c(C)ccc(C(=O)NC4C(=O)NC(C(C)O)C(=O)N5CCCC5C(=O)N(C)CC(=O)N(C)C(C(C)C)C(=O)OC4C)c3nc-2c(C(=O)NC2C(=O)NC(C(C)O)C(=O)N3CCCC3C(=O)N(C)CC(=O)N(C)C(C(C)C)C(=O)OC2C)c(N)c1=O` (stereo not drawn) (I: TTP[Sar][NMeV] / II: TTP[Sar][NMeV]; ester I:1-I:C, II:1-II:C; linker I:N-II:N via Actinocin(9to1); configuration not given here) belongs active: 0.526 µM; to `Cc1c2oc3c(C)ccc(C(=O)NC4C(=O)NC(C(C)C)C(=O)N5CCCC5C(=O)N(C)CC(=O)N(C)C(Cc5ccccc5)C(=O)OC4C)c3nc-2c(C(=O)NC2C(=O)NC(C(C)C)C(=O)N3CCCC3C(=O)N(C)CC(=O)N(C)C(Cc3ccccc3)C(=O)OC2C)c(N)c1=O` (stereo not drawn) (I: TVP[Sar][NMeF] / II: TVP[Sar][NMeF]; ester I:1-I:C, II:1-II:C; linker I:N-II:N via Actinocin(9to1); configuration not given here), active: < 10 nM and active: 17.9 nM.
